# No constants are given. Whether binding was seen depends on the method and setting. In cells and extracts the contact can be indirect. Some results given as binding are weak or reduced against the parent protein; the word gives no strength.
# Sequences of proteins named here, by UniProt entry; tags and fusion partners are left off.
# UniProt Q86WV6: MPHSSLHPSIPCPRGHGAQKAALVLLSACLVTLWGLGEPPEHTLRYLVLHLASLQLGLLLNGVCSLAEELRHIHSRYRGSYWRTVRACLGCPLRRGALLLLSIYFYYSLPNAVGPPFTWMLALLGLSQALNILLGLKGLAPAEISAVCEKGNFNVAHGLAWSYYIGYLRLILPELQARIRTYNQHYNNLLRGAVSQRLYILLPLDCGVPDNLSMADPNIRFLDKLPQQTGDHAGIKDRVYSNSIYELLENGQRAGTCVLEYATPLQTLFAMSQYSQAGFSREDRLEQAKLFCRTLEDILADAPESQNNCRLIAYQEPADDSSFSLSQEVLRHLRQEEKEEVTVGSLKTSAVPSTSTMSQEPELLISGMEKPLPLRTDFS
# UniProt Q96KP1: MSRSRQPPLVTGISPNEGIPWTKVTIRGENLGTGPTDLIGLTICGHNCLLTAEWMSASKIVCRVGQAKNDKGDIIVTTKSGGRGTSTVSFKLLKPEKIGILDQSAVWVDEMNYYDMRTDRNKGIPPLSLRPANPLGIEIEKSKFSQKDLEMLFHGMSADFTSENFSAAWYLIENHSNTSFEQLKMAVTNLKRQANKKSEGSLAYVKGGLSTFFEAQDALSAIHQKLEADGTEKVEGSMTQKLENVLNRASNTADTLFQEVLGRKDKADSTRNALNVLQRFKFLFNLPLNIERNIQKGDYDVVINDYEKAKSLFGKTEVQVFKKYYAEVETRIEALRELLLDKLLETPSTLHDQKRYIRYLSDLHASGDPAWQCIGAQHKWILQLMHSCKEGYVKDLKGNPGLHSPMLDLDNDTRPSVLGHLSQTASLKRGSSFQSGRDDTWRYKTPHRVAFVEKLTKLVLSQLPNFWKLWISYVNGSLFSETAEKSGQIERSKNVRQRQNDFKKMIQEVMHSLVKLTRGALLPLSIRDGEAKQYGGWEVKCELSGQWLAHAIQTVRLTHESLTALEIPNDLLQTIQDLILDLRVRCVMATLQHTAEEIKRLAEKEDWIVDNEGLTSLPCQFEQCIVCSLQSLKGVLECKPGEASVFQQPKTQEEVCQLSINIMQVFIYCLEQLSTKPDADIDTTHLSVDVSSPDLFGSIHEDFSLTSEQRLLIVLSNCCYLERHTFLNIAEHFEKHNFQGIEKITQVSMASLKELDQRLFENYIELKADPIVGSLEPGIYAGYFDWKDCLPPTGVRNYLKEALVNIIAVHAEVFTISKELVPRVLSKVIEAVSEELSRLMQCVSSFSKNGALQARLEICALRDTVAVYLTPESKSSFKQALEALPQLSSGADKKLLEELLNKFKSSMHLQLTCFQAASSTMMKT
# UniProt Q8NEB9: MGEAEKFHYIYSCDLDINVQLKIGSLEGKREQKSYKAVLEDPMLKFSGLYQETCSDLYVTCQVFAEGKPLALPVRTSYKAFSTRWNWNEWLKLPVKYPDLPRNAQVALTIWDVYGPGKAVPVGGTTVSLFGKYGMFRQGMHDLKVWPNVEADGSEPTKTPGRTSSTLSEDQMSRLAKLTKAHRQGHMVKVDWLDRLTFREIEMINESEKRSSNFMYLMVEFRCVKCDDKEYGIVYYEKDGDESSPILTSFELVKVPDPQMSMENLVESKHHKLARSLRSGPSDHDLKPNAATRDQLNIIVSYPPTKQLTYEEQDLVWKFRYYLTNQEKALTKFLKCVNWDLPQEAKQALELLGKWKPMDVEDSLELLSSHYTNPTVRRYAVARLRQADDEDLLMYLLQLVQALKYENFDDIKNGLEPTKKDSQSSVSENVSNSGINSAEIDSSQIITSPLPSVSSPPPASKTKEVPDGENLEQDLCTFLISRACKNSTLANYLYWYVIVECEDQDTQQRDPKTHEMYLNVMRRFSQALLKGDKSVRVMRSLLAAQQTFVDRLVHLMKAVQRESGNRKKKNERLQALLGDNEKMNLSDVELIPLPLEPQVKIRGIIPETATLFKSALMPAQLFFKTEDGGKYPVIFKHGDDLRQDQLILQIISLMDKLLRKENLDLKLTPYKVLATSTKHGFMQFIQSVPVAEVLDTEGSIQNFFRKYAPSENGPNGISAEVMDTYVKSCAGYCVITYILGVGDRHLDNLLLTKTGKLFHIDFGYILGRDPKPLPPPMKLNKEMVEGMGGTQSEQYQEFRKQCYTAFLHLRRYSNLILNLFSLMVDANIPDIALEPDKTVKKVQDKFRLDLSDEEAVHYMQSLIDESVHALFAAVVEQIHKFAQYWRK
# UniProt Q8N884: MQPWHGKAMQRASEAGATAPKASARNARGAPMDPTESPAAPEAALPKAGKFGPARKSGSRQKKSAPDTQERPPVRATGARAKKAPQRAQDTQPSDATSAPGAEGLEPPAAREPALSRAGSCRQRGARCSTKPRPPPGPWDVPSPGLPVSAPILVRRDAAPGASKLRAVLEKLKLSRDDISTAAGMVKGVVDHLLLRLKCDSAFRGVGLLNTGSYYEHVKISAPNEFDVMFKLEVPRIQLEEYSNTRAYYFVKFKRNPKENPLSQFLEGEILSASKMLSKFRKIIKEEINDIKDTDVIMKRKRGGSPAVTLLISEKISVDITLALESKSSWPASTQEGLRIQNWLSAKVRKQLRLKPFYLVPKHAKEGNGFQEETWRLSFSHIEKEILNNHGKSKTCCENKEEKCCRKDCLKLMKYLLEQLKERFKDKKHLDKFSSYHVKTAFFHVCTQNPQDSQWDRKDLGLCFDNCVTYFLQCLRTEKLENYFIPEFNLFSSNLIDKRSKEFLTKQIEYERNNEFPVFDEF
# T1: IRF3 (UniProt Q14653)
# T1 sequence: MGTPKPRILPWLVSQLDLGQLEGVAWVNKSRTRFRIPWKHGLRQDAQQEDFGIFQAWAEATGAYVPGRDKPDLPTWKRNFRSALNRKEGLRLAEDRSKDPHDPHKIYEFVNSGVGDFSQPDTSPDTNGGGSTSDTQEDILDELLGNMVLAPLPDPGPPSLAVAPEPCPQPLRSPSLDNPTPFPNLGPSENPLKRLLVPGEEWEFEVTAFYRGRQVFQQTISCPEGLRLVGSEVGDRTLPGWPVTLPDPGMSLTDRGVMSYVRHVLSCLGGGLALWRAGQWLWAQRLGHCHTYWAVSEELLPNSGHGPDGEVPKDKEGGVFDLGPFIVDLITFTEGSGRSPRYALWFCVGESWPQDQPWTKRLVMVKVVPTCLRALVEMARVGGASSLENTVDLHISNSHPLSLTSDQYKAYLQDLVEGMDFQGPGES
# T2: TBK1 (UniProt Q9UHD2)
# T2 sequence: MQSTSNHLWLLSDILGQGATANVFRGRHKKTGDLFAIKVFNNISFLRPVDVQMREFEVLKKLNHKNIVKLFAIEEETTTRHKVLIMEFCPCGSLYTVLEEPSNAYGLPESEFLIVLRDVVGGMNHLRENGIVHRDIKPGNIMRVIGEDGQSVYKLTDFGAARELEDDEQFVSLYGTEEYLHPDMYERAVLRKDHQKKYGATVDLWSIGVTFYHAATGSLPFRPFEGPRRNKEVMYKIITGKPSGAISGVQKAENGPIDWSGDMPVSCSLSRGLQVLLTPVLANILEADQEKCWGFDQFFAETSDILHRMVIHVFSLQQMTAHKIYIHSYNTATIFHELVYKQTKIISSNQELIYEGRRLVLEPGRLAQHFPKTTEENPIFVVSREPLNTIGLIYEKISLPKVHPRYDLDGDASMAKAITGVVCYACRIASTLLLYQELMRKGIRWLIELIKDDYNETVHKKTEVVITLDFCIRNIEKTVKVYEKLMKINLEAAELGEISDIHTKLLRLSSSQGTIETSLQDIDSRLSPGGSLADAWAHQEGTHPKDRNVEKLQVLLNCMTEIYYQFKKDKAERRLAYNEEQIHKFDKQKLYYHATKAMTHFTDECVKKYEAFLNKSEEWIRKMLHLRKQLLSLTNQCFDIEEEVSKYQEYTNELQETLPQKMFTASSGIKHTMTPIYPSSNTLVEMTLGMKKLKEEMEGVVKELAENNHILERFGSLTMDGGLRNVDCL
# T3: TRAPβ (UniProt P43308)
# T3 sequence: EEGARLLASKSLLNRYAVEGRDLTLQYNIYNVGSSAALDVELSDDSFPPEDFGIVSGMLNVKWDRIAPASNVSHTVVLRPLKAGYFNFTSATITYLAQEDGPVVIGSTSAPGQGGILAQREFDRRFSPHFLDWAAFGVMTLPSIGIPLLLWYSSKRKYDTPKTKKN
# T4: iRhom2 (UniProt Q6PJF5)
# T4 sequence: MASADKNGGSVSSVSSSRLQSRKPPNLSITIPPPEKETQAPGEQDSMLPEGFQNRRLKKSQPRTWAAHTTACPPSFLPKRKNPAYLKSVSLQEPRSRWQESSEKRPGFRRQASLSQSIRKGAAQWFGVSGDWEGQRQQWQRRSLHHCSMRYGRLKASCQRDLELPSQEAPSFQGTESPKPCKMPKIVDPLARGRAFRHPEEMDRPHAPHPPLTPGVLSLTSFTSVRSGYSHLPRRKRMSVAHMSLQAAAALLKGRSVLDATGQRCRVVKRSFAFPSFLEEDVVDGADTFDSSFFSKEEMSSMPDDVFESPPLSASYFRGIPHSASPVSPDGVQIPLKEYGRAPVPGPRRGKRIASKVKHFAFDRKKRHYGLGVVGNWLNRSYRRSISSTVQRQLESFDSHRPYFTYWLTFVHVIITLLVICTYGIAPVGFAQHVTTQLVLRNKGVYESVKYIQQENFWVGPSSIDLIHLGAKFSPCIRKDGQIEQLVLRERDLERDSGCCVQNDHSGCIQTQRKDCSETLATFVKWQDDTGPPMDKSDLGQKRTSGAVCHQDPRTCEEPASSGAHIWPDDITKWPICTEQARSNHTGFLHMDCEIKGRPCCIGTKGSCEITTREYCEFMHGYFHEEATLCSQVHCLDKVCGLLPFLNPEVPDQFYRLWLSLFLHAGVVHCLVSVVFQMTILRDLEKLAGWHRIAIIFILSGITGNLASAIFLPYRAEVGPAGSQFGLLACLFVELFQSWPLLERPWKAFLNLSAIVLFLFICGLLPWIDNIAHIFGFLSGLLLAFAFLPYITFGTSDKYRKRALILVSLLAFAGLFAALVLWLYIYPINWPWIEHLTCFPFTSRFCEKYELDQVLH
# T5: MITA (endogenous, mouse lung fibroblasts) (mouse (endogenous in MLFs)) (UniProt Q3TBT3)
# T5 sequence: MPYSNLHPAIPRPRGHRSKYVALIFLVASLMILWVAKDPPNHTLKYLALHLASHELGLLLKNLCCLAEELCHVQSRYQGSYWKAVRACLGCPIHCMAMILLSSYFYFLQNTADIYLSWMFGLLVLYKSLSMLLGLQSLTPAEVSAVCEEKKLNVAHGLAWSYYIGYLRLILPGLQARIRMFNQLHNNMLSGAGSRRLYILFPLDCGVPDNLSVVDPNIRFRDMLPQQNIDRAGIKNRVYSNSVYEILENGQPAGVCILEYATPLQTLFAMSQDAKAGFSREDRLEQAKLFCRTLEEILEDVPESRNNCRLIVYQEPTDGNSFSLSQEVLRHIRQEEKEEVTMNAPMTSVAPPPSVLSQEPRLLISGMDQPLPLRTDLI
# Legend:
# IRF3 = molecular target: T1, IRF3; test: co-IP; HEK293 cells (2x10^6) transfected with the indicated plasmids (5 μg each) for 24 h (Fig 6E also with knockdown of SNX8); NP40 lysis buffer (20 mM Tris-HCl, 150 mM NaCl, 1 mM EDTA, 1% Nonidet P-40); indicated antibody or control IgG with Protein-G sepharose, at least 2 hr; washed three times with lysis buffer containing 500 mM NaCl; immunoblot
# [1] = molecular target: MITA (also called STING, MPYS, ERIS, or TMEM173) (UniProt Q86WV6); test: as above
# Sec5 = Sec5 (UniProt Q96KP1); test: as above
# TBK1 = molecular target: T2, TBK1; test: as above
# TRAPβ = molecular target: T3, TRAPβ; test: as above
# [2] = molecular target: class III phosphatylinositol 3-kinase (PI3K) VPS34 (UniProt Q8NEB9); test: as above
# [3] = molecular target: cyclic GMP-AMP (cGAMP) synthase (cGAS) (UniProt Q8N884); test: as above
# iRhom2 = molecular target: T4, iRhom2; test: as above
# [4] = molecular target: T5, MITA (endogenous, mouse lung fibroblasts) (mouse (endogenous in MLFs)); test: co-IP; endogenous co-immunoprecipitation from MLFs (3x10^7), un-infected or early after HSV-1 infection; NP40 lysis buffer; Protein-G sepharose; washes with 500 mM NaCl; immunoblot
Binder,binding (IRF3),binding [1],binding (Sec5),binding (TBK1),binding (TRAPβ),binding [2],binding [3],binding (iRhom2),binding [4]
"Sorting nexin 8 (SNX8) (protein, UniProt Q9Y5X2 1-465) MTGRAMDPLPAAAVGAAAEAEADEEADPPASDLPTPQAIEPQAIVQQVPAPSRMQMPQGNPLLLSHTLQELLARDTVQVELIPEKKGLFLKHVEYEVSSQRFKSSVYRRYNDFVVFQEMLLHKFPYRMVPALPPKRMLGADREFIEARRRALKRFVNLVARHPLFSEDVVLKLFLSFSGSDVQNKLKESAQCVGDEFLNCKLATRAKDFLPADIQAQFAISRELIRNIYNSFHKLRDRAERIASRAIDNAADLLIFGKELSAIGSDTTPLPSWAALNSSTWGSLKQALKGLSVEFALLADKAAQQGKQEENDVVEKLNLFLDLLQSYKDLCERHEKGVLHKHQRALHKYSLMKRQMMSATAQNREPESVEQLESRIVEQENAIQTMELRNYFSLYCLHQETQLIHVYLPLTSHILRAFVNSQIQGHKEMSKVWNDLRPKLSCLFAGPHSTLTPPCSPPEDGLCPH",no binding,binds,binds,no binding,no binding,binds,no binding,binds,–
"SNX8 (endogenous, mouse lung fibroblasts) (protein, UniProt Q8CFD4 1-459) MTGRAMDPLPSPAVAAAAEAEADEEADPPATGPRTSQVTEWRALDPGRMQMPQGNPLLLSYTLQELLAKDTVQVELIPEKKGLFLKHVEYEVSSQRFKSSVYRRYNDFVVFHEVLLHKFPYRMVPALPPKRVLGADREFIEGRRRALKRFINLVARHPPFSEDVLLKLFLSFSGSDVQHKLKEAAQCVGDEFMNCKLAARAKDFLPADIQTQFAMSRELIRNVYNSFYKLRDRAERIASRAIDNAADLLIFGKELSALGSDTTPLPSWAALHLSTWGSLKQALKGLSVEFALLADRAAQQGKKEENDVVEKLNLFLDLLQSYKDLCERHEKGVLHKHQRALHKYGLMKRQMMSAAHGREPESVEQLESRIVEQENVIQTMELRNYFSLYCLHQETQLVHVYLPLTSHILGAFVNSQIQGHKEMSKVWNDLKPKLSCLFAGPHSVLTPPRSPQEDGVCPH",–,–,–,–,–,–,–,–,binds
"SNX8(178–465) (domain or fragment, UniProt Q9Y5X2 178-465) SGSDVQNKLKESAQCVGDEFLNCKLATRAKDFLPADIQAQFAISRELIRNIYNSFHKLRDRAERIASRAIDNAADLLIFGKELSAIGSDTTPLPSWAALNSSTWGSLKQALKGLSVEFALLADKAAQQGKQEENDVVEKLNLFLDLLQSYKDLCERHEKGVLHKHQRALHKYSLMKRQMMSATAQNREPESVEQLESRIVEQENAIQTMELRNYFSLYCLHQETQLIHVYLPLTSHILRAFVNSQIQGHKEMSKVWNDLRPKLSCLFAGPHSTLTPPCSPPEDGLCPH",–,no binding,–,–,–,–,–,–,–
